# According to publication PMC12136788:
# This is one part of the list.
# T1: UNK ZnF1-3 (human, UniProt Q9C0B0 31-174)
# T1 sequence: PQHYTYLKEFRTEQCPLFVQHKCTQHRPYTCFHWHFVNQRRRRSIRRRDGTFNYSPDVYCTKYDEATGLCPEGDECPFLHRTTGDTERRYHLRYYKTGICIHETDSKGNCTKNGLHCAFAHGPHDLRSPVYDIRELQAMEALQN
# B1: chr6:86333760:86333761:-_ENSG00000135316_ENST00000355238|hu_hu|motif|central (ssRNA)
# RNA: GGGAGUUCUACAGUCCGACGAUCUUCUUCAAGAAUCUGUUCCUUGGUUUUACUCUUAGGAAUAGAGCCCACAAAAAGCCGGUUGUUGGCAACUGAGAUGCAGACACCAAUAUGUUUUCCAGAACGAAUUUCAUGAUUAUUAUACAACAGAGGAUUGAGCAUCA
# B2: chr9:56909451:56909452:+_ENSMUSG00000032290_ENSMUST00000034832|mus_mus|motif|central (ssRNA)
# RNA: GGGAGUUCUACAGUCCGACGAUCCACAUACGUACACACACACACACACAGAAUGACAGAAAAGACUGGAAUACACGCCCGGUGUAUAAACGUGCUUGGCACUCGGGACAUUCUCUAGAAUAUGUAACUUGGUCAAGCUUUCUGCAACAGAGGAUUGAGCAUCA
# B3: chr7:7679991:7679992:-_ENSG00000106399_ENST00000396682|hu_hu|hu_hu_hu_mus_False|1_1 (ssRNA)
# RNA: GGGAGUUCUACAGUCCGACGAUCUGGGAUGAAUCUUUUCCAGCUUCCCCACGAAGCACACGGGCCGGUCGAUAUACUGUGGUAACAUGCUGGCGUUGACGCGCGCUUUGGGGAGCUGCAUUAUGUCCUCCAUGAUUAUGGUCCCAACAGAGGAUUGAGCAUCA
# B4: 31463140_31463260_7784_3pUTR_ENSMUSG00000025609_ENSMUST00000026699|mouse|control|control (ssRNA)
# RNA: GGGAGUUCUACAGUCCGACGAUCCACAUUUGCAGAUAUGAUUUACAAAGAUUCCUUUUUUUUUCUUUAAGAUUUAUUAUUAAAUCUAAGUACACUGUAGAUGUCUUCAGACACCCCAGAAGAGGGCAUCAGAUCUUAUUAUAGCAACAGAGGAUUGAGCAUCA
# B5: chr5:24309113:24309114:-_ENSMUSG00000028945_ENSMUST00000030787|mus_hu|motif|central (ssRNA)
# RNA: GGGAGUUCUACAGUCCGACGAUCUUUUAUUUACAAGUAUACAUUUAACACAAUGAAAUAAACACUGAUAUACUGAAGCCGGGUUAAUAGUAGUGUAACAAUAUGCAUCAUUUUGAUGAUUACAUUAUUUUAAACAACAAACUACAACAGAGGAUUGAGCAUCA
# B6: 155317593_155319135_8075_CDS_ENSG00000116539_ENST00000392403|human|control|control (ssRNA)
# RNA: GGGAGUUCUACAGUCCGACGAUCAAUCUCAUCAAUCUGGGCUGAUGCCUCAUGCCGGGCAUUGUAAUAGGCCUUUCGUAGACGACAAACAUCUCUCCCAACUGGGGAUUUACGCCCAUAGUACUUCUCAGCAUUCCGAAAGACCAACAGAGGAUUGAGCAUCA
# B7: 63970054_63970174_7087_CDS_ENSG00000103657_ENST00000443617|human|control|control (ssRNA)
# RNA: GGGAGUUCUACAGUCCGACGAUCUUCUGCUUCAUCCCAUUGGACCUUGGCAGACGUGCUGCCCUCUUUGACCACUCCCAGCAGCGUGGCAUGGCGCCCAGUUUGCUUGUGAACACACCGACCUCCAACUCUAAGACCAGCAUCCAACAGAGGAUUGAGCAUCA
# B8: 35061023_35061143_2183_CDS_ENSG00000165280_ENST00000358901|human|control|control (ssRNA)
# RNA: GGGAGUUCUACAGUCCGACGAUCCAUAGUAACUGCUAGAGAGUUCAUGACCUCGGCAUCAAUGGUCUCAUCCUCUAGGUCAAUGAGAUCCAUCUUCUUGCGGAUGGCUUGCAGAGCAGCCUCUGAGCACAGGGCUGCUAAGUCCAACAGAGGAUUGAGCAUCA
# B9: chr19:16452684:16452685:+_ENSMUSG00000024639_ENSMUST00000025541|perfect_dup|FALSE|FALSE (ssRNA)
# RNA: GGGAGUUCUACAGUCCGACGAUCGUUUAAGAACAGAAUAACCGAGGAGUUCUGGAACCAGGGGUAUGUGAUAAUUGUUCUAAAGAGAGCCUUGCUUUCCUCCAUUCGGUUCUCAUUGUCUGACUCCACGAGAACUUGAUCAUACAACAGAGGAUUGAGCAUCA
# B10: chr1:39494564:39494565:+_ENSG00000168653_ENST00000372967|hu_hu|hu_hu_hu_mus_True|28_108 (ssRNA)
# RNA: GGGAGUUCUACAGUCCGACGAUCAUGUGCACGUCUCAUCGUUUUGUACCGAAGCAAGCACUCUUCGAAGUCAUCGAACUCUAUCUUGCACUCCUUUUUCGCCCGGGUAUAACCGAUCCCGUGUGCACACUCUAUCCACUCUUUCAACAGAGGAUUGAGCAUCA
# B11: 23046642_23048043_1795_3pUTR_ENSMUSG00000026775_ENSMUST00000028117|mouse|control|control (ssRNA)
# RNA: GGGAGUUCUACAGUCCGACGAUCUGGUAACCAUUUCUUUUCCAUCAACUGCUGCCUUUAGUGCAGCUUGGUUCACAAGAUUCUCCAACUCUGCUCCAGAGAACCCAACAGUCCCUCGAGCUAUGAUUUCUGGAUCAACAGAUUCAACAGAGGAUUGAGCAUCA
# B12: 31357273_31357393_181_CDS_ENSMUSG00000013629_ENSMUST00000013773|mouse|control|control (ssRNA)
# RNA: GGGAGUUCUACAGUCCGACGAUCCGACACAGCGGCCCCAAAGGGCCGGCCCUGCAGCACCGACCCGUCCUCCAACACCAGGGCCGCCAUCGGGUCGGAGCUGAGACAGGGCAAGCACGCAGACGCGGGAGGCGCGGCGAGCCCCAACAGAGGAUUGAGCAUCA
# B13: chr1:46159212:46159213:+_ENSG00000159596_ENST00000372025|hu_mus|hu_hu_hu_mus_True|28_28 (ssRNA)
# RNA: GGGAGUUCUACAGUCCGACGAUCUCUGAUCCCUCCCAAGAAAGCUAGGAAACCGGCUCCAUAAGCCAUCUGAGUGAAAGCUAGGACGGGGAUAUAAGACUUUGUUAUCAGCAUGACAAGUGGGGGAGCAGUAAAGGGGAUUAACAACAGAGGAUUGAGCAUCA
# B14: chr1:215793774:215793775:+_ENSG00000136636_ENST00000259154|hu_mus|FALSE|FALSE (ssRNA)
# RNA: GGGAGUUCUACAGUCCGACGAUCCAGAUAGGGAACUUUCUUUCUUCCAAGAAAUCCUCCUGCUUCAAACCCUUUCUUUCGGAACUCCACUUUAUGCUCAUUUUCAUCCUCUGCUGACCUUUUCUUGGGCUCUGACAAACCCUCCAACAGAGGAUUGAGCAUCA
# B15: chr17:62495991:62495992:-_ENSG00000108654_ENST00000581693|hu_hu|motif|central (ssRNA)
# RNA: GGGAGUUCUACAGUCCGACGAUCCACCAUAAUUACUGCUGCACUGCAGUCAUUUCUGCAAUUCCCAUGUUUCUUAAAUAACGGUCUUGUCAGAUAACACACAAUAUAAAGAGCAAUUAUGAAAAACAGACAUUUACAUAUACUCAACAGAGGAUUGAGCAUCA
# B16: 93279883_93281176_729_CDS_ENSMUSG00000026309_ENSMUST00000027534|mouse|control|control (ssRNA)
# RNA: GGGAGUUCUACAGUCCGACGAUCACUAUCUCCAAGGUUGGCGAUAUACAGGAUGUUGUCCACAGCCAGGACACACGUGGCAGUGGACCCGUCUUUCCAGGCAGGCUUCUGGCUUGAAGCCUGUUUCAGGAACUCUUCAUCGGUCAACAGAGGAUUGAGCAUCA
# B17: 10008422_10008542_665_CDS_ENSG00000115750_ENST00000263663|human|control|control (ssRNA)
# RNA: GGGAGUUCUACAGUCCGACGAUCGCUGACGGGGAAAGGUUUUCGAGUGUGGAUGUCAGACUGAGACUCCGCUCCACUUUCAAGAAAAGGAGGACAGCUGACAUCACUUAGCAGCUCAGGCUCACUAGCCCAGUCUGAAUGACUCAACAGAGGAUUGAGCAUCA
# B18: chr14:102368134:102368135:+_ENSG00000078304_ENST00000445439|hu_hu|hu_hu_hu_mus_True|88_108 (ssRNA)
# RNA: GGGAGUUCUACAGUCCGACGAUCAAGGGGUUCCAUGAUCUUCACAAAUUCUGAUGGUUCAAUUACAUCUAAAAUUUCUUCUAAUUCAUUUAAGAACAUUACUUCUUUUGGACUGUGAGUCUUUGGCCAGUAUUUGAGAAGUGCCAACAGAGGAUUGAGCAUCA
# B19: 73577691_73577811_2190_CDS_ENSG00000119707_ENST00000261973|human|control|control (ssRNA)
# RNA: GGGAGUUCUACAGUCCGACGAUCAUCUGGUGAGUUUUCAUGAGGAAUAAUAAUACCACAGGGAGACUCAUCCCCAGGAGUGUUAGGUGUUGCAUUGCCACUGGCAGAGGAAACAGAUGGAGCAGAGCUGAUGGGCCUCAGAGUCAACAGAGGAUUGAGCAUCA
# B20: chr10:70928335:70928336:+_ENSG00000122958_ENST00000263559|hu_hu|FALSE|FALSE (ssRNA)
# RNA: GGGAGUUCUACAGUCCGACGAUCCCAUAAAAUUAUCUCCUGCUGUUUGAAGUACCUCCGGUCUUCCUCAUCAACAAGCACUAAAUUCAAAAAGUACCUUACUGAAAAUUUUUUGUUCACAUCUCUCAUUGUUGGAGUUGGGUCCAACAGAGGAUUGAGCAUCA
# B21: chr1:120503909:120503910:+_ENSMUSG00000064302_ENSMUST00000049404|mus_mus|FALSE|FALSE (ssRNA)
# RNA: GGGAGUUCUACAGUCCGACGAUCCUUUCUCCAUGUCAUGUAGAAGACAGGAGGGGGUCUUGUCCCAUCUGACCAUACUCUAAGAACAUAAGCAUAAAGAACACACAGCAAUACCCCAAACCACCCCCAAGUCUGUAUGGACUGCAACAGAGGAUUGAGCAUCA
# B22: chr19:8913615:8913616:-_ENSMUSG00000071658_ENSMUST00000096259|mus_hu|mus_mus_mus_hu_False|18_58 (ssRNA)
# RNA: GGGAGUUCUACAGUCCGACGAUCAGGGUACCAAAACCUUCUGCCUGAAAUGGGUGCCCCACCCAGUAGGGAGUUGCAGCUAAAAAUAUCUGAUGCAGAAGCAGUGACUAUACGAAAGGUCACUAGAGGGGAGGGCCAGGCCAGCAACAGAGGAUUGAGCAUCA
# Target: T1, UNK ZnF1-3
# Test: nsRBNS (natural sequence RNA bind-n-seq); RBNS binding buffer (assumed for nsRBNS): 25 mM Tris pH 7.5, 150 mM KCl, 3 mM MgCl2, 0.01% Triton X-100, 500 ug/ml BSA, 20 U/ml SUPERase-In, 4 C; UNK is unkempt and MSI1 is Musashi-1; names of the RNAs are library labels; protein concentration not given here; high values mean tight binding
row,Binder,binding signal [enrichment R]
1,B1,1.07
2,B2,1.07
3,B3,0.47
4,B4,0.894
5,B5,0.761
6,B6,0.956
7,B7,0.943
8,B8,0.431
9,B9,0.726
10,B10,0.401
11,B11,0.69
12,B12,0.455
13,B13,1.27
14,B14,0.513
15,B15,0.746
16,B16,0.336
17,B17,0.627
18,B18,0.799
19,B19,1.63
20,B20,1.13
21,B21,1.37
22,B22,1.59
